# Test results as given in publication PMC5892938.
# This is one part of the list. The source does not settle which construct or isoform was used.
# Target: GST-SBP-ILF3 (Homo sapiens) (UniProt Q12906)
# Experiment: targeted RNA Bind-n-Seq
# Conditions: RBNS binding buffer: 25 mM Tris pH 7.5, 150 mM KCl, 3 mM MgCl2, 0.1% Tween, 0.5 mg/mL BSA, 1 mM DTT; 27 nM protein, 750 pM RNA pool; temperature not stated; high values mean tight binding; sequences stand for … in GGGUAAAAGCGAGGUGAA…CGGGACAAGUAUUAUGGG
row,Sequence,binding signal (log2 fold change)
1,GUGGUUGGUGUUGGUCCCUAACACCGACCG [gtspaired],-0.454
2,UUUUUUUUUUGAGAACGGGGCGUUCUCCUA [tttttgagapaired],0.308
3,UUUUUUUUUUGAGACUGGAACAGUCUCCUG [tttttgagapaired],0.223
4,UUUUUUUUUUGAGAUGGCGACCAUCUCCUA [tttttgagapaired],0.276
5,UUUUUUUUUUGAGACGGGAACCGUUUCCGG [tttttgagapaired],0.639
6,UUUUUUUUUUGAGACUGCUUCAGUCUCCUA [tttttgagapaired],-0.00297
7,UUUUUUUUUUGAGACCGAACCGGUCUCCUG [tttttgagapaired],0.198
8,UUUUUUUUUUGAGACGGGCUCCGUCUCCAG [tttttgagapaired],0.494
9,UUUUUUUUUUGAGAUGGCCACCAUCUCCUG [tttttgagapaired],0.757
10,GUGUGUGGUGUUGGACUCUAACACCGCGCA [gtspaired],-0.14
11,GGUGUGUGUGUUGGACUCUAACACACGCGC [gtspaired],-1.11
12,UUUUUUUUUUGAGACCGCAGCGGUCUCCAG [tttttgagapaired],0.746
13,GUGUGUGGUGUUGGCAUCUAACACCACGCG [gtspaired],-0.58
14,UUCUCUCUUCCUCCGGUGGAGGAGGGGAGA [ctspaired],-0.184
15,GUGUGUGGUGUUGGACUCUAACACCGCACG [gtspaired],-0.603
16,UUUUUUUUUUGAGACCGAAACGGUUUCCUG [tttttgagapaired],0.537
17,UUUUUUUUUUGAGAGCGGGGCGUUCUUCUA [tttttgagapaired],0.779
18,GUGUGUUGUGUUGGCGCCUAACACAACGCG [gtspaired],-0.365
19,GUGGUUGGUGUUGGCUCCUAACACCGACUA [gtspaired],-0.619
20,UUUUUUUUUUGAGAGCGAACCGUUCUCCGG [tttttgagapaired],0.275
21,UUUUUUUUUUGAGACCGGACCGGUCUCCUA [tttttgagapaired],0.362
22,UUUUUUUUUUGAGAUGGGCACCAUCUCCUA [tttttgagapaired],0.499
23,GUGGUGUGUGUUGGCACCUAACACAUACUA [gtspaired],-0.582
24,UUUUUUUUUUGAGACGGGGUCUGUCUCCGG [tttttgagapaired],0.704
25,UUUUUUUUUUGAGAGGGGACCCCUCUCCUG [tttttgagapaired],0.996
26,UUUUUUUUUUGAGAUCGAGACGGUCUCCGG [tttttgagapaired],0.4

row,Sequence,binding signal (log2 fold change)
1,UUUUUUUUUUGAGAUGGAGGCCAUCUUCUA [tttttgagapaired],0.314
2,UUUUUUUUUUGAGACCGAAUCGGUCUUCUA [tttttgagapaired],0.115
3,UUUUUUUUUUGAGAGGGACCCCCUCUUCUA [tttttgagapaired],0.306
4,GUGUGGUGUGUUGGCUUCUAACACAUCAUA [gtspaired],-0.721
5,UUUUUUUUUUGAGACGGGAACCGUCUUCUG [tttttgagapaired],0.197
6,GUGUGUGGUGUUGGCCUCUAACACCACAUA [gtspaired],-0.479
7,UUUUUUUUUUGAGAUGGACGCCAUCUCCGG [tttttgagapaired],0.561
8,UUUUUUUUUUGAGAUCGUAGCGAUCUCCGG [tttttgagapaired],0.244
9,UUUUUUUUUUGAGACUGCAACAGUUUCCAG [tttttgagapaired],0.483
10,UUUUUUUUUUGAGAGGGGGGCCCUCUCCUG [tttttgagapaired],0.976
11,UUUUUUUUUUGAGACUGUAACAGUCUCCGG [tttttgagapaired],0.429
12,UUUUUUUUUUGAGACGGACUCCGUCUCCAG [tttttgagapaired],0.55
13,GGUGUGUGUGUUGGAUCCUAACACACGCGC [gtspaired],-0.146
14,GGUGUUGGUGUUGGAGCCUAACACCAGCGC [gtspaired],-0.448
15,UUUUUUUUUUGAGACUGAAACAGUCUCCGG [tttttgagapaired],0.155
16,GUGUGGUGUGUUGGUUCCUAACACAUCACA [gtspaired],-0.318
17,UUUUUUUUUUGAGAUGGACACCAUCUCCUA [tttttgagapaired],0.161
18,UUUUUUUUUUGAGAGUGCGGCAUUCUCCAG [tttttgagapaired],0.449
19,UUUUUUUUUUGAGAACGGGGCGUUCUCCGG [tttttgagapaired],0.39
20,UUUUUUUUUUGAGAUGGGCUCCAUCUCCGG [tttttgagapaired],0.5
21,GUUGGUGGUGUUGGUACCUAACACCGCCGA [gtspaired],-0.691
22,GUGGUUGGUGUUGGCGCCUAACACCGACCG [gtspaired],-0.424
23,UUUUUUUUUUGAGAUGGCCGCCAUCUCCAG [tttttgagapaired],0.792
24,UUCCUUCUUCCUCCUUGGGAGGGAGAGGGA [ctspaired],-0.259
25,UUUUUUUUUUGAGACUGAAUCAGUCUCCUA [tttttgagapaired],0.00366
26,GUUGUGUGUGUUGGACCCUAACACACGCGA [gtspaired],-0.2

row,Sequence,binding signal (log2 fold change)
1,UUUUUUUUUUGAGACUGGGACAGUCUUCUG [tttttgagapaired],0.781
2,UUUUUUUUUUGAGACUGAGCCAGUCUCCAG [tttttgagapaired],0.383
3,UUUUUUUUUUGAGACCGAUUCGGUUUCCGG [tttttgagapaired],0.34
4,GGUGUGUGUGUUGGAUUCUAACACACGCGC [gtspaired],-0.476
5,UUUUUUUUUUGAGACGGGUACCGUCUCCGG [tttttgagapaired],0.327
6,UUUUUUUUUUGAGAUGGGGUCCAUCUCCUA [tttttgagapaired],0.275
7,UUUUUUUUUUGAGAGCGGAGCGCUCUUCUG [tttttgagapaired],0.229
8,GGUGUGUGUGUUGGAGCCUAACACAUACAC [gtspaired],-0.161
9,GUGUGGUGUGUUGGAUCCUAACACAUCACG [gtspaired],-0.667
10,UUUUUUUUUUGAGAGCGUCACGCUCUUCUA [tttttgagapaired],0.275
11,GUGUGUUGUGUUGGCUCCUAACACAGCACG [gtspaired],-0.623
12,UUUUUUUUUUGAGACGGACCCCGUCUCCGG [tttttgagapaired],0.873
13,UUUUUUUUUUGAGAACGUGACGUUCUCCGG [tttttgagapaired],0.206
14,UUUUUUUUUUGAGAGGGCUUCCCUCUCCAG [tttttgagapaired],0.404
15,UUUUUUUUUUGAGACCGAACCGGUCUCCUA [tttttgagapaired],-0.0587
16,GUGUGUGGUGUUGGAGUCUAACACCGCGCG [gtspaired],-0.74
17,UUUUUUUUUUGAGAGUGAGUCACUCUCCUA [tttttgagapaired],-0.00193
18,UUUUUUUUUUGAGAUGGGUCCCAUCUCCAG [tttttgagapaired],0.659
19,GUGUGGUGUGUUGGCAUCUAACACACCGCG [gtspaired],-0.672
20,UUUUUUUUUUGAGAUGGGCGCCAUCUCCAG [tttttgagapaired],0.616
21,UUUUUUUUUUGAGACUGUUUCAGUCUUCUG [tttttgagapaired],0.0515
22,UUUUUUUUUUGAGAUGGAUCCCAUCUUCUA [tttttgagapaired],0.0611
23,UUUUUUUUUUGAGAGCGUAGCGUUCUCCGG [tttttgagapaired],0.333
24,UUUUUUUUUUGAGACCGGAACGGUUUCCUG [tttttgagapaired],0.595
25,UUUUUUUUUUGAGAGUGAUACACUCUCCAG [tttttgagapaired],0.0737
26,GGUUGUGGUGUUGGCCCCUAACACCGCGAC [gtspaired],-0.254

row,Sequence,binding signal (log2 fold change)
1,GUGUGGUGUGUUGGCUUCUAACACAUCACG [gtspaired],-0.382
2,UUUUUUUUUUGAGACGGAUGCCGUCUCCAG [tttttgagapaired],0.492
3,UUUUUUUUUUGAGACUGUUUCAGUUUCCGG [tttttgagapaired],0.289
4,GGUUGUGGUGUUGGACUCUAACACCGCAGC [gtspaired],-0.795
5,GUGUGGUGUGUUGGUACCUAACACACUACG [gtspaired],-0.886
6,UUUUUUUUUUGAGACCGAUUCGGUCUUCUA [tttttgagapaired],-0.114
7,UUUUUUUUUUGAGAGGGAUGCCCUUUCCGG [tttttgagapaired],0.319
8,GUGUGUUGUGUUGGUCUCUAACACAACACG [gtspaired],-0.295
9,UUUUUUUUUUGAGAUCGGUGCGAUCUUCUG [tttttgagapaired],0.437
10,UUUUUUUUUUGAGAACGUACCGUUCUCCUA [tttttgagapaired],0.202
11,UUUUUUUUUUGAGAUCGUAGCGAUCUCCUA [tttttgagapaired],0.131
12,UUUUUUUUUUGAGAGGGUAGCCCUCUCCAG [tttttgagapaired],0.791
13,UUUUUUUUUUGAGACGGUCUCCGUCUCCGG [tttttgagapaired],0.721
14,UUUUUUUUUUGAGACUGAACCAGUCUCCGG [tttttgagapaired],0.0471
15,GGUGUGUGUGUUGGCCCCUAACACAUACGC [gtspaired],0.215
16,GUUGUGUGUGUUGGCUCCUAACACACGCAG [gtspaired],-0.453
17,UUUUUUUUUUGAGAGGGGUGCCCUCUUCUA [tttttgagapaired],0.667
18,UUUUUUUUUUGAGACCGAAUCGGUUUCCUA [tttttgagapaired],0.512
19,GUGUGUUGUGUUGGAAUCUAACACAGCACG [gtspaired],-0.719
20,GUUGUGUGUGUUGGCCCCUAACACACGCGA [gtspaired],-0.181
21,UUUUUUUUUUGAGACGGGAGCCGUCUUCUA [tttttgagapaired],0.436
22,GUGUUGUGUGUUGGCACCUAACACACAGCA [gtspaired],-0.477
23,UUUUUUUUUUGAGACCGAAUCGGUCUCCAG [tttttgagapaired],0.49
24,UUUUUUUUUUGAGAAGGUAUCCUUCUCCGG [tttttgagapaired],0.0261
